Measurements reported in PMC9871955, “High-throughput screening of SARS-CoV-2 main and papain-like protease inhibitors” (Protein & Cell, 2022).

Test system: SARS-CoV-2
Assay: microbe, parasite or virus in culture
Settings: Severe acute respiratory syndrome coronavirus 2, Vero, read-out: anti-SARS-CoV-2 infection activity in cell culture, IC50

SMILES: O=C(Oc1cncc(Cl)c1)c1sccc1Cl [WNN2048-F004]
- IC50: 21.3 µM
